In publication PMC4336329 (PLoS ONE, 2015):
Out of some 310,000 compounds screened, about 2,200 (0.71%) showed an effect of 50% or more. Effects have a minus sign here. The list shows a part of the results.

molecular target: human ether-à-go-go-related gene (hERG) potassium channel (human, UniProt Q12809); assay: primary screen, population patch clamp on CHO cells stably expressing hERG
Sequence (Q12809 whole entry, looked up): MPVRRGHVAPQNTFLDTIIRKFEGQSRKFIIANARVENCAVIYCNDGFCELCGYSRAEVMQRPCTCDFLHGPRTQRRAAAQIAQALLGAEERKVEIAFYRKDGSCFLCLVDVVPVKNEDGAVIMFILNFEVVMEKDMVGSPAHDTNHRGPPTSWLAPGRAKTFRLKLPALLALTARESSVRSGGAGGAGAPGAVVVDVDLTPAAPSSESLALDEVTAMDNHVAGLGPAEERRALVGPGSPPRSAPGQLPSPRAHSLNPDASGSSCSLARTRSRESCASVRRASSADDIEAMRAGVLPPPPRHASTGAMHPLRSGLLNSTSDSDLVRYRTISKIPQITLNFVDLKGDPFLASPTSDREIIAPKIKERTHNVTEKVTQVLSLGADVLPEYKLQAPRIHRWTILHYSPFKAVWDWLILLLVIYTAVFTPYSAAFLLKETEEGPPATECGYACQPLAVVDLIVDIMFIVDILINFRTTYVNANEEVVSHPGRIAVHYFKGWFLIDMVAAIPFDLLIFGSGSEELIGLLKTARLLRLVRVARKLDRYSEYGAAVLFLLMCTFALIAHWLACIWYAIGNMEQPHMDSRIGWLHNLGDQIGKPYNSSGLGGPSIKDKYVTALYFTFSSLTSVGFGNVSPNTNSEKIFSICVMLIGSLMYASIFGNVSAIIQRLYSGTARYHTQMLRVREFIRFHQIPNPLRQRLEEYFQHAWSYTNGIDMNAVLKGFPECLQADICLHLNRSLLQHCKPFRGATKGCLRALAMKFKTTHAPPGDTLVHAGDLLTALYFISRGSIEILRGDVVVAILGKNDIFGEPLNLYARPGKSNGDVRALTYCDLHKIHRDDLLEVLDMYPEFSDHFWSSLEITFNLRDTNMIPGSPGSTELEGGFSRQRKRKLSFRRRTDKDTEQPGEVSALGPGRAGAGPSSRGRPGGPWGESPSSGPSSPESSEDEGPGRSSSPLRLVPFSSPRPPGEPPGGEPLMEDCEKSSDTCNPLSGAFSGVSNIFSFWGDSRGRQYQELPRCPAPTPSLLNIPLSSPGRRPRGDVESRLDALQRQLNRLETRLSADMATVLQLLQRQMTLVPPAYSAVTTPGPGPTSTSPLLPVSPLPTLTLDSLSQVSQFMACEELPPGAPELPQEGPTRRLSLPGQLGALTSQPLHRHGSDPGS

SMILES	hERG current change (%, negative = inhibition) at 1uM [%]
COc1ccc(N2C(=O)CN=C2Nc2nc(C)cc(C)n2)cc1	8.29
NCCCC[C@@H]1NC(=O)[C@H](CCC(=O)O)NC(=O)c2cc([N+](=O)[O-])cc(I)c2SC[C@@H](C(=O)NCC(N)=O)NC1=O	16.6
Cl.Cn1cnc(CCN)c1	0.808
O=C(O)CCCC(=O)NNc1nc(-c2ccccc2)c2cc(Cl)ccc2n1	19
COC(=O)CCC(=O)c1ccn(S(=O)(=O)c2ccccc2)c1	16.1
O=C(NCCCc1ccccc1)c1cncc(Br)c1	6.04
COc1ccc(S(=O)(=O)N(CC(=O)N2CCN(C)CC2)c2ccccc2)cc1OC	7.51
CCCc1nnc(NC(=O)CCC(=O)NC2CCCCC2)s1	23.6
CN(Cc1cnccn1)Cc1nc(Cc2ccccc2F)no1	5.37
COc1ccc(-n2c(=O)cc(N3CCOCC3)[nH]c2=O)cc1	8.58
Cc1ccc(-n2nc(C)c3c(C)c(CCC(=O)O)c(C)nc32)cc1	8.11
CCOc1nc(S(=O)(=O)c2ccc(C)cc2)c(Cl)s1	7.74
CCC1CCCCN1CCCNC(=O)CN1C(=O)c2cccnc2Oc2ccc(C)cc21 (stereo not drawn)	0.845
COc1cc(NS(=O)(=O)c2ccc(NC(=O)CN3C(=O)c4ccccc4C3=O)cc2)ncn1	7.35
CS(=O)(=O)N1CCN(c2ccccc2NC(=O)c2ccc(-c3ccc(Br)cc3)o2)CC1	-2.63
CN(C)S(=O)(=O)c1ccc(C(=O)NCC(=O)N/N=C/c2cccs2)cc1	13.5
O=C(CN1C(=O)NC2(CCc3ccccc32)C1=O)Nc1ccccc1C(F)(F)F (stereo not drawn)	8.32
CN(C)c1ccc(CCc2ccc(N)cc2)cc1	16.9
Cc1ccc(OCc2nnc(NC(=O)c3cccnc3)s2)cc1	-1.05

SMILES	hERG current change (%, negative = inhibition) at 1uM [%]
Br.NC1(N)OC(CN2C(=O)c3ccccc3C2=O)CS1 (stereo not drawn)	4.86
COc1cccc(C(=O)NCC2(c3ccc(OC)c(OC)c3)CCCC2)c1	17
CCn1c(NC(=O)C2CCCCC2)nc2ccccc21	15
CCCN(CCC)CCNC(=O)C1(O)c2ccccc2NC(=O)N1c1cccc(OC)c1 (stereo not drawn)	11.8
COc1ccc(S(=O)(=O)NCC(=O)N(CC2CCCO2)C(C(=O)NC2CCCC2)C(C)C)cc1 (stereo not drawn)	1.13
CCCCN(C(=O)Cc1cccs1)c1nnc(-c2cccnc2)s1	3.44
CCSc1nnc(CCNS(=O)(=O)c2ccc(C(C)=O)cc2)n1C	11.7
CCOC(=O)Cn1cc(C(=O)c2ccco2)c2ccccc21	7.89
CC1CCCC(NC(=O)CN(C)CC(=O)Nc2ccc(F)cc2)C1C (stereo not drawn)	-2.28
CC1CN=C(NCc2ccccc2)S1 (stereo not drawn)	14.9
O=C(CN1CCCCC1)NN(Cc1ccccc1)c1ccccc1.O=C(O)C(=O)O	-28
Cc1ccc(C)c(NC(=O)CCN2CCC(C)CC2)c1	5.36
Cc1nc2sc(C(c3ccco3)N3CCN(c4ccc(F)cc4)CC3)c(O)n2n1 (stereo not drawn)	-6.73
Br.Cc1ccc(C(=O)Cn2c(=N)n(N)c3ccccc32)cc1	8.01
O=C(NCC(F)(F)F)N1CCOCC1	11.6
Cc1nc2nc[nH]n2c(=O)c1NC(=O)CC12CC3CC(CC(C3)C1)C2	9.77
Cc1cccn2c(=O)c(C=O)c(NCc3ccccc3)nc12	8.55
CCCCNc1nc(N(C)c2ccccc2)nc(-n2ccnc2)n1	2.87
COC(=O)C1=C(CS(=O)(=O)c2ccc(Cl)cc2)NC(=O)NC1c1ccc(O)c(OC)c1 (stereo not drawn)	-0.572

SMILES	hERG current change (%, negative = inhibition) at 1uM [%]
Cc1ccc(O/C=C2\OC(=O)c3ccccc32)cc1	13.1
O=C(NCC1COc2ccccc2O1)C1C2C=CC3(CN(Cc4ccccc4Cl)C(=O)C13)O2 (stereo not drawn)	-4.57
COc1ccc(C(=O)COC(=O)C(CCSC)NS(=O)(=O)c2ccc(Cl)cc2)cc1 (stereo not drawn)	8.48
CCCN(CCC)CC(=O)Nc1cccc2c1OCO2.Cl	10.6
O=c1c2c(nc3nc(CCc4ccccc4)[nH]n13)CCC2	-2.14
COCCN1CCN(C(=O)c2cc(COc3ccc(F)cc3F)on2)CC1	5.1
CCOc1ccccc1Nc1nc(-c2sc(NC(=O)c3ccccc3)nc2C)cs1	16.2
Cc1ncoc1C(=O)N1CCCC(C(=O)Nc2cccc(-c3ccc(F)cc3)c2)C1 (stereo not drawn)	4.88
Cc1ccc(NC(=O)CCn2cc(C(F)(F)F)ccc2=O)cc1	17.1
COc1ccc(OCC(=O)NNC(=O)c2nn(C)c(=O)c3ccccc23)cc1	6.51
CC1CCN(S(=O)(=O)c2ccc(NC(=O)CN3C(=O)NC(C)(c4ccccc4)C3=O)cc2)CC1 (stereo not drawn)	-7.82
O=C(c1cc([N+](=O)[O-])ccc1Cl)N1CCN(Cc2ccccc2)CC1	10.3
CNc1c([N+](=O)[O-])cnn1-c1ccccc1Cl	-13.4
CCCOc1ccccc1C1NC(=O)NC(C)=C1C(=O)OCCOC(C)C (stereo not drawn)	3.29
O=C(CSc1ccsc1[N+](=O)[O-])NCc1ccccc1	9.97
CCCCn1ccnc1C(=O)c1cccc(S(=O)(=O)N2CC(C)CC(C)C2)c1 (stereo not drawn)	-8.3
Cc1ccc(C)c(N2CCN(C(=O)c3ccc(CSc4nc5ccncc5[nH]4)cc3)CC2)c1	1.45
O=C(N/N=C/c1cccc(Oc2ccccc2)c1)c1cccc(O)c1	15.3
CC(C)(C)NC(=S)N/N=C/c1cccnc1	9.56
